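Values below derive from 48-hour exposures of cells grown in 96-well plates, with endpoints linearly interpolated between the two concentrations bracketing the appropriate inhibition level. At the GI50, growth is halved.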 Activity calls are given as the source filed them. Cut-off read from the data, not from the text of the source: active = GI50 up to about 1.1 µM and inactive = higher.
test system: NCI-H322M; test: growth of human tumour cells (NCI), 48 h

Question: Which GI50 does the source give for O=C(CC1(O)C(=O)Nc2ccccc21)c1ccc2ccccc2c1 (stereo unspecified) here?
Answer: inactive: > 100 µM

Question: Which GI50 does the source give for O=S(=O)(O)c1cc(/N=N/c2cccc3ccccc23)c(O)c2ncccc12 here?
Answer: inactive: 29.8 µM

Question: Which GI50 does the source give for O=C(Cc1ccccc1)NN1C(=O)/C(=C\c2cccc(O)c2)S/C1=N\c1ccccc1 here?
Answer: inactive: > 100 µM

Question: Cc1cc2c(C)nn(Cc3ccccc3)c2c(C(N)=O)c1C was tested. Which GI50 did it give?
Answer: inactive: > 100 µM

Question: How did the GI50 turn out when O=C1Oc2cc(O)cc(/C=C/c3ccc(O)cc3)c2[C@@]12c1c(O)cc(O)cc1OC2c1cccc(O)c1 (stereo partly specified) was run?
Answer: inactive: 21.1 µM

Question: For COc1ccc(NC(C)c2ccncc2)cc1 (stereo unspecified), which GI50 is on record?
Answer: inactive: 1.63 µM

Question: Which GI50 does the source give for COc1ccc(CN/C=N/C(C#N)=C(\N)C#N)cc1OC here?
Answer: inactive: 81.7 µM

Question: With CCOC(=O)NNC(=O)C1CSC(c2ccccc2)N1C(C)=O (stereo unspecified) as the molecule, how does the GI50 read?
Answer: inactive: > 100 µM

Question: How did the GI50 turn out when CC(NC(=O)c1ccc(OP(=O)(OCC2=CC(=O)c3ccccc3C2=O)N(C)CCCCCl)cc1)c1ccc(OCC2CCCCC2)c(C(N)=O)c1 (stereo unspecified) was run?
Answer: inactive: 15.5 µM

Question: For Fc1ccccc1/N=c1\oc2ccc(Br)cc2cc1-c1nc2ccccc2[nH]1, which GI50 is on record?
Answer: inactive: 11.1 µM

Question: For O=C(c1cccs1)N(C(=S)N1CCN(c2ccccc2)CC1)c1ccccc1, which GI50 is on record?
Answer: inactive: > 100 µM

Question: For NC(Cc1ccc(CP(=O)(O)O)cc1)C(=O)O (stereo unspecified), which GI50 is on record?
Answer: inactive: > 100 µM

Question: With O=C1OC2(OC2c2ccc(Cl)cc2)c2ccccc21 (stereo unspecified) as the molecule, how does the GI50 read?
Answer: inactive: > 100 µM

Question: CSc1nc2c(c(O)c(C)c(=O)n2C2OCC(OC(C)=O)C(OC(C)=O)C2OC(C)=O)c(=O)n1C (stereo unspecified) was tested. Which GI50 did it give?
Answer: inactive: > 100 µM

Question: How did the GI50 turn out when O=S(=O)(c1cc(Cl)ccc1Cl)N1CCN(S(=O)(=O)c2cc(Cl)ccc2Cl)CC1 was run?
Answer: inactive: > 100 µM

Question: Which GI50 does the source give for O=C(/C=C/c1ccccc1F)c1ccc([N+](=O)[O-])cc1 here?
Answer: inactive: 48.9 µM

Question: NNC(=O)CSc1nc2ccccc2c(=O)n1N was tested. Which GI50 did it give?
Answer: inactive: 81.1 µM

Question: With C[N+]1=c2c3cccc4cccc(c(=O)n2CC1)c43 as the molecule, how does the GI50 read?
Answer: inactive: 11 µM

Question: With CCOC(=O)c1c(SC)nc(-c2ccc(Cl)cc2)sc1=N.[O-][Cl+3]([O-])([O-])O as the molecule, how does the GI50 read?
Answer: inactive: 27.6 µM

Question: Which GI50 does the source give for O=C(C[n+]1ccccc1)N/N=C(/CCC(=O)N(Cc1ccccc1)Cc1ccccc1)CC(=O)c1ccccc1 here?
Answer: inactive: > 100 µM

Question: For Cc1ccc(/N=N/C(=N\NC(=O)c2ccc(C)cc2)c2ccc(N(CCC#N)CCC#N)cc2C)cc1, which GI50 is on record?
Answer: inactive: 43.9 µM

Question: Which GI50 does the source give for O=C(O)c1ccccc1NC(c1ccccc1)c1ccc2cccnc2c1O (stereo unspecified) here?
Answer: inactive: 4.28 µM

Question: Which GI50 does the source give for C(=C\c1nccs1)/c1cccc(/C=C/c2nccs2)n1 here?
Answer: inactive: > 50 µM

Question: C[C@]12CCC(=O)O[C@H]1CCCCO2 was tested. Which GI50 did it give?
Answer: inactive: > 100 µM

Question: O=c1cnnc2sc(=S)[nH]n12 was tested. Which GI50 did it give?
Answer: inactive: > 100 µM

Question: With CC(C)(C)OC(=O)Cn1ncn(NC(=O)Cc2ccccc2)c1=S as the molecule, how does the GI50 read?
Answer: inactive: > 10 µM

Question: With COC1=C(OC)C(=O)C(Cc2c(Cl)nc3n2CCS3)=C(C)C1=O as the molecule, how does the GI50 read?
Answer: inactive: 16.1 µM

Question: Which GI50 does the source give for COc1cc(C2c3cc4c(cc3[C@@H](Nc3ccc5c(c3)OCCO5)C3COC(=O)[C@H]23)OCO4)cc(OC)c1O (stereo partly specified) here?
Answer: inactive: 4.05 µM

Question: Which GI50 does the source give for CN(C)C(=S)SCC(N)=O here?
Answer: inactive: > 100 µM

Question: Which GI50 does the source give for Cc1cnc(NCCCN(C)C)c2c1[nH]c1ccc3cc(O)ccc3c12 here?
Answer: active: 0.419 µM

Question: With CC(C)=CC(=O)c1[nH]c2ccccc2c1CC(=O)NCCc1c[nH]cn1 as the molecule, how does the GI50 read?
Answer: inactive: > 100 µM

Question: Which GI50 does the source give for O=C(CSc1nc2ccccc2c2ccccc12)c1ccccc1 here?
Answer: inactive: > 100 µM

Question: How did the GI50 turn out when OCc1ccc2c(c1)CC1(C2)Cc2cc3c(cc2C1O)CCC3 (stereo unspecified) was run?
Answer: inactive: 9.33 µM

Question: For COc1cc2c(cc1O)[C@H](C)C(c1ccc(OC)c(OC)c1)O2 (stereo partly specified), which GI50 is on record?
Answer: inactive: > 100 µM

Question: Which GI50 does the source give for O=C1C2C(C(=O)N1c1ccccc1)C1([N+](=O)[O-])C=C3c4ccccc4N(C(=O)c4ccccc4)C32C2C(=O)N(c3ccccc3)C(=O)C21 (stereo unspecified) here?
Answer: inactive: > 100 µM

Question: S=C1OC2CCCC[C@H]2O1 (stereo partly specified) was tested. Which GI50 did it give?
Answer: inactive: > 100 µM

Question: Which GI50 does the source give for C/C(=N\NC(=O)c1ccncc1)c1cccc(C(F)(F)F)c1 here?
Answer: inactive: > 10 µM

Question: With COc1cc(O)c2c(=O)c(OC)c(-c3ccc(OC)c(O)c3)oc2c1 [AYANIN] as the molecule, how does the GI50 read?
Answer: inactive: 38 µM

Question: Which GI50 does the source give for N#Cc1c(N2CCN(c3ccc([N+](=O)[O-])cc3)CC2)[n+]([O-])c2ccc(Cl)cc2[n+]1[O-] here?
Answer: inactive: 11.7 µM

Question: Which GI50 does the source give for OCCCNCc1ccncc1 here?
Answer: inactive: > 100 µM

Question: With C[n+]1c(-c2ccc(/C=N\N3CCN(/N=C/c4ccc(-c5cn6ccsc6[n+]5C)cc4)CC3)cc2)cn2ccsc21 as the molecule, how does the GI50 read?
Answer: inactive: 67.8 µM

Question: Which GI50 does the source give for CN1C(=O)C23CCCCC2CC1(c1ccccc1)S3 (stereo unspecified) here?
Answer: inactive: > 100 µM

Question: With CCOc1c2ccsc2c(OCC)c2ccsc12 as the molecule, how does the GI50 read?
Answer: inactive: 4.99 µM

Question: For CCOC(=O)c1ccc(/N=c2/[nH]c3ccccc3s/c2=N/c2ccc(C(=O)OCC)cc2)cc1, which GI50 is on record?
Answer: inactive: > 100 µM

Question: Which GI50 does the source give for O=c1oc2ccccc2cc1-c1nnc(-c2ccccc2)s1 here?
Answer: inactive: > 79.1 µM

Question: How did the GI50 turn out when N#Cc1c(-c2ccc([N+](=O)[O-])cc2)cc(-c2ccc(Nc3ccnc4cc(C(F)(F)F)ccc34)cc2)[nH]c1=O was run?
Answer: inactive: > 100 µM
